# Over roughly 33,000 sequences, “E-score (-0.5 to 0.5)” has its median near -0.043; the highest 2% begin near 0.37. Some of the results follow.
# Target: T1, Upc2 (UniProt Q12151)
# T1 sequence: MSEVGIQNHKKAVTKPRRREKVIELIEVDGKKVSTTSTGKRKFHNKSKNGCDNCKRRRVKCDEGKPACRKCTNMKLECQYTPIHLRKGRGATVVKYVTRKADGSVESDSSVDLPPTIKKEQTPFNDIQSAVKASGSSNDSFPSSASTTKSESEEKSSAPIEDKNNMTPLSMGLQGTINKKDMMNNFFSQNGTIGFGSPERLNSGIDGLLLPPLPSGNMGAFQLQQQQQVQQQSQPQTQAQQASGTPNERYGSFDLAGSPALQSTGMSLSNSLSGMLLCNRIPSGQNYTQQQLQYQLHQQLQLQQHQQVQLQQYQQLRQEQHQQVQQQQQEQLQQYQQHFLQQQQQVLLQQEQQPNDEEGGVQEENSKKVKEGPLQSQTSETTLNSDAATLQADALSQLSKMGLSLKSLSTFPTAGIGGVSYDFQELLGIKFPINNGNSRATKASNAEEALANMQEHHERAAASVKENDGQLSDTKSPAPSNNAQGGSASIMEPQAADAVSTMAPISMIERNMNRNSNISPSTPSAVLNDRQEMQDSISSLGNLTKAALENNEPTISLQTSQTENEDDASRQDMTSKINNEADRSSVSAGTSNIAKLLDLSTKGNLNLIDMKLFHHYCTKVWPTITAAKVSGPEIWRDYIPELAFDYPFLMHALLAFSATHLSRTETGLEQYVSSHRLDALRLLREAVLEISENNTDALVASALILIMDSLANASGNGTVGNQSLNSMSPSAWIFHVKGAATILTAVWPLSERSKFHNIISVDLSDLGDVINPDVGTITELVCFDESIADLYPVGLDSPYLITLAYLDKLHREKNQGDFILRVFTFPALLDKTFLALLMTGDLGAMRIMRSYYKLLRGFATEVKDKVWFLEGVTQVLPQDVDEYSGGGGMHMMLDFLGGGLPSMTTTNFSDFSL
# Experiment: PBM E-score (8-mer binding enrichment) (E-score (-0.5 to 0.5)); higher = stronger / more preferred TF binding; most listed sequences are background and not binding sites
# Settings: protein concentration: 200 nM; construct: GST-full length
# How it was run: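 PURExpress in vitro transcription/translation supplied GST-tagged yeast transcription factors, either full-length or DNA-binding domain. Applied at about 100-200 nM to universal all-10-mer Agilent arrays double-stranded by primer extension, the bound protein was detected with fluorescent anti-GST. E-scores, modified Wilcoxon-Mann-Whitney statistics, were given by the Universal PBM Analysis Suite to ungapped eight-base words pooled with their reverse complements after masliner normalisation.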
row,Sequence,PBM E-score
1,GTTCCAGA,0.172
2,ATTCAATC,0.126
3,GCAGCAGC,-0.0534
4,ACGTACAG,0.3
5,ACGACGCG,0.389
6,CACTGTGG,-0.198
7,GCACATCA,-0.0856
8,TAGACTAA,-0.17
9,AGGAGATG,-0.152
10,AGTTCTAA,-0.0515
11,ACCACGCA,-0.214
12,CATACGCC,0.307
13,AGTGACTC,-0.152
14,GAGTTGGC,0.00118
15,CCGGAAGA,-0.126
16,AGTAAGGC,-0.0311
17,AAACCATC,0.0789
18,AACCGACG,0.274
19,CCCCAATA,-0.184
20,GTTCGATA,0.063
21,TAAGTCGA,0.0365
22,ATCCGGGC,-0.172
23,AATCCCCG,-0.119
24,AGGCCCCC,-0.249
25,CTGGATAA,-0.103

row,Sequence,PBM E-score
1,ACTTATGA,-0.0397
2,GCTTTTTA,0.0834
3,ACGTGAGA,-0.0447
4,AAAGGTCC,-0.2
5,ACCTTGGA,-0.403
6,AGAGAGTG,-0.0951
7,CTAGTGTC,0.0134
8,AGGACGTG,-0.219
9,GTTCTCGA,0.219
10,AATTAATT,0.0772
11,GATAAATA,0.0557
12,GGCTAAAC,0.251
13,TGGTTGAA,-0.322
14,CACCGAAG,-0.0326
15,ATGATCCC,-0.172
16,AACGTCAC,-0.0182
17,GGGCGCAA,-0.0461
18,GGATTATA,0.102
19,AGTTCGAG,0.00075
20,AAATTCAC,0.00055
21,CAACGACA,0.313
22,CCTTAGTA,-0.179
23,AACTCCGC,-0.232
24,CAGACCTA,0.0156
25,CGCAAGGC,-0.177

row,Sequence,PBM E-score
1,ATCCTACA,-0.0956
2,CGGAGCAC,-0.0154
3,ATCATGCG,-0.0346
4,ACGGGGAG,0.0563
5,CGTAACAG,0.303
6,ATTCAAAG,-0.0977
7,CGCGGGTC,0.099
8,GACGAATC,0.138
9,AGTAACAG,-0.121
10,AGATACCC,0.0316
11,CGCTCATA,0.153
12,AAGCCCGG,-0.0712
13,ACATGAGC,-0.14
14,GAACGATA,0.402
15,CAGACCCC,-0.37
16,ACCTCTGG,-0.0874
17,AAACCCTA,-0.259
18,CTCGAAAA,-0.0106
19,CAAAAACG,0.152
20,CGGGGGCA,-0.247
21,CAACCAAG,-0.167
22,CACCGCCA,-0.099
23,GCGTCGCC,-0.128
24,CAATTGCC,-0.132
25,ATGCCCAC,-0.0923

row,Sequence,PBM E-score
1,CGGTTCTA,-0.0216
2,CTCCAACC,-0.115
3,TAGAGAGA,-0.13
4,CCCCAGGG,-0.139
5,ACAAATCA,0.00175
6,AGAGATGG,-0.165
7,GTGATAAC,-0.0723
8,GGATCACA,-0.106
9,ACGCAGGG,-0.0657
10,AAGCGGGG,-0.0605
11,CGTTTAAG,0.468
12,AGCTCAGC,-0.183
13,AACCATCG,0.245
14,AAATTTAC,0.209
15,GAAAAACC,-0.037
16,CTCGGTGC,-0.101
17,CGCACTGC,-0.0508
18,AAATAGGG,-0.0639
19,GGCACTTA,-0.127
20,CAGTTAGG,-0.123
21,AGTCTTAG,-0.185
22,CACAGCTG,-0.187
23,CTCACGGC,-0.372
24,ATTGTACC,0.115
25,GGTACCGA,0.0871

row,Sequence,PBM E-score
1,TACGCCGA,0.258
2,CCGGCCCC,0.00831
3,GTTATACA,0.0778
4,ACCTTGAG,-0.164
5,GGGTAAAC,0.233
6,GAACAGTA,0.101
7,ACCAGGGT,-0.0954
8,CAGAATGG,-0.0946
9,AAATGTGT,-0.0399
10,AGACGTCT,-0.122
11,AGCGAATA,0.123
12,TCAATGCA,-0.208
13,CTGATGTA,-0.156
14,AACTGTAC,0.324
15,GTGAATCA,-0.315
16,GCGCACAA,0.159
17,AAGAATAT,0.0235
18,CTAGTTGC,-0.0741
19,ACAGTGCG,-0.00565
20,GAGCGATA,0.218
21,ACTCCTCG,0.282
22,ATAATCGG,0.0801
23,ATACCATC,-0.0205
24,CCTTGTTA,-0.0682
25,ATCTGATG,-0.158

row,Sequence,PBM E-score
1,GCGGAAAC,-0.0877
2,AGTCGTTA,0.317
3,ACGGTGTA,0.308
4,CGTCCCCC,-0.194
5,AGGCAGTA,-0.125
6,TAACGAAA,0.334
7,GAACATAC,0.243
8,ACAAAAAC,0.139
9,GGCAACAC,-0.167
10,TCCGTACA,0.406
11,GTATCTAA,0.131
12,CGCAGATA,-0.0855
13,ATCTCGAC,0.0574
14,GAATGGCA,-0.18
15,CAGGAGGA,-0.183
16,GACTACAA,-0.0845
17,ACGAGCGA,0.379
18,ATCTTAGA,-0.0845
19,ATTATGTA,0.0402
20,GTCGAATA,0.258
21,CATAATGG,-0.179
22,ATACGCTA,0.329
23,AGACGGAG,-0.0909
24,GATATGAA,0.0888
25,CACAGCGA,0.0677

row,Sequence,PBM E-score
1,CCGTTACC,0.0638
2,ACCGGTTG,0.11
3,CGTCTCTC,-0.0107
4,ACTCTTCA,-0.00317
5,CACTAATG,-0.0741
6,ACCAGTCT,0.0395
7,GTGACGCA,-0.0632
8,AAGTATAC,0.306
9,ACGTCTGG,-0.00268
10,ACTCCCCC,-0.13
11,ACTTGAAC,0.276
12,AGCAATGC,0.0427
13,AGTCGATA,0.0566
14,AGATGGGA,-0.335
15,AGACAGAT,-0.164
16,ATAAGGCC,-0.0528
17,AACTCTTG,-0.188
18,AGTCTGGG,-0.0458
19,AACACGGC,-0.188
20,GTGCGCCA,-0.114
21,GTAAAAAA,0.123
22,TGGCTAAA,-0.186
23,CTCTGCAA,-0.0496
24,ATTCCTAA,-0.00315
25,TGTCATAA,0.0655

row,Sequence,PBM E-score
1,GCGACTCC,-0.0919
2,GATCAAAA,-0.0517
3,AAACGAAG,0.464
4,CGACGTTC,0.143
5,CGTAGCTA,0.203
6,AATAATCC,-0.0617
7,GTACCTAA,0.181
8,ACCCGCCC,-0.0357
9,AACTCTGG,0.0038
10,CTGGCTAC,0.132
11,CGGGCTGC,0.00474
12,GATTTATA,0.21
13,AACCCTGC,0.0669
14,CACATATG,-0.15
15,ACAATCCT,-0.183
16,ATGTGTCA,-0.224
17,AGTTTCCA,-0.116
18,ATTGCTGG,-0.0945
19,ACGTCTTG,-0.0246
20,TATCCACA,-0.164
21,CTATGGAC,-0.193
22,ACGTCGTG,0.0636
23,CCCCACAG,-0.153
24,GATCTACC,-0.0836
25,GTTCCTCA,-0.0794

row,Sequence,PBM E-score
1,AGCAATAG,-0.0995
2,AACATACA,0.0209
3,CGGCTTAA,0.113
4,ACCGTGCG,0.0948
5,GTAGGCAA,-0.0681
6,AGAGGCTA,-0.168
7,CAGTCATG,-0.372
8,CAATACTA,-0.206
9,AACGACTT,0.305
10,CTTAGAAG,-0.0532
11,GACTCCTA,-0.308
12,AGCGTATG,0.268
13,AGCATCGC,0.0481
14,AAACGTTG,0.196
15,CCCGGGTA,0.0367
16,CATTCTAC,-0.0747
17,AGTGGCAA,-0.0731
18,ATAAGTCG,0.178
19,AACCCTCC,-0.159

# From the supplement of paper PMC3334620
